Data set [1] deals with the molecule itself. The data set can be described thus: SEC. In general terms: SEC sorts molecules by how far they enter the pores of the column.
Data set [2] deals with the molecule itself. The data set can be described thus: SEC. The source holds these as a separate data set.

Like-named read-outs stand apart in the source and are kept apart here.

B1: Hsp27* (cysteine-less human Hsp27, C137A) (natural protein)
chain: not shown
In the case of B1, the stoichiometry N – broadly, a count of units in the complex or per binding partner – in the data set “SEC [1]” stood at 2 subunits.

B2: Hsp27*-D3 (S15D/S78D/S82D on cysteine-free Hsp27*) (natural protein)
chain: not shown
In the case of B2, the “stoichiometry N” value in “SEC [2]” was 2 subunits.

B3: Hsp27*-PLPP/AAAA (natural protein)
chain: not shown
For B3, the binding result in the data set “SEC [2]” is reported as “binds”.

For the origin of these results see PMC6563326 (Structure (London, England : 1993), 2018).
